Results as given in the supplement of paper PMC8728848.
The list shows a part of the results.

Key:
Test in all cases: glycan array binding signal (z-score within array); higher = stronger binding
Details in all cases: glycan notation: IUPAC condensed, linker removed
[1] = molecular target: Kdn(a2-3)Gal(b1-4)GlcNAc
Summary of the method: (§1)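 The Consortium for Functional Glycomics database supplied 3228 glycan arrays, of which those lacking an available protein sequence were dropped. The binding signal, a within-array Z-score, was averaged across arrays of the same protein sequence and across linkers. Negative scores can be read as non-binding.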

[2] = molecular target: Man(a1-2)Man(a1-2)Man(a1-3)Man
Summary of the method: as §1

[3] = molecular target: Man(a1-2)Man(a1-2)Man(a1-3)[Man(a1-2)Man(a1-3)[Man(a1-2)Man(a1-6)]Man(a1-6)]Man(b1-4)GlcNAc(b1-4)GlcNAc
Summary of the method: as §1

[4] = molecular target: Man(a1-2)Man(a1-2)Man(a1-3)[Man(a1-2)Man(a1-6)[Man(a1-3)]Man(a1-6)]Man(b1-4)GlcNAc(b1-4)GlcNAc
Summary of the method: as §1

[5] = molecular target: Man(a1-2)Man(a1-2)Man(a1-6)[Man(a1-3)]Man
Summary of the method: as §1

[6] = molecular target: Man(a1-2)Man(a1-3)Man
Summary of the method: as §1

[7] = molecular target: Man(a1-2)Man(a1-3)[Man(a1-2)Man(a1-6)]Man
Summary of the method: as §1

[8] = molecular target: Man(a1-2)Man(a1-3)[Man(a1-3)[Man(a1-6)]Man(a1-6)]Man(b1-4)GlcNAc(b1-4)GlcNAc
Summary of the method: as §1

[9] = molecular target: Man(a1-2)Man(a1-3)[Man(a1-6)]Man(a1-6)[Man(a1-2)Man(a1-3)]Man(b1-4)GlcNAc(b1-4)GlcNAc
Summary of the method: as §1

[10] = molecular target: Man(a1-3)[Man(a1-6)]Man
Summary of the method: as §1

[11] = molecular target: Man(a1-3)[Man(a1-6)]Man(a1-6)[Man(a1-3)]Man(b1-4)GlcNAc(b1-4)GlcNAc
Summary of the method: as §1

[12] = molecular target: Man(a1-3)[Man(a1-6)]Man(b1-4)GlcNAc(b1-4)GlcNAc
Summary of the method: as §1

[13] = molecular target: Man(b1-4)GlcNAc
Summary of the method: as §1

[14] = molecular target: Neu5Ac(a2-3)Gal
Summary of the method: as §1

[15] = molecular target: Neu5Ac(a2-3)Gal(b1-3)GalNAc
Summary of the method: as §1

[16] = molecular target: Neu5Ac(a2-3)Gal(b1-3)GalNAc(b1-3)Gal(a1-4)Gal(b1-4)Glc
Summary of the method: as §1

[17] = molecular target: Neu5Ac(a2-3)Gal(b1-3)GalNAc(b1-4)[Neu5Ac(a2-3)]Gal(b1-4)Glc
Summary of the method: as §1

[18] = molecular target: Neu5Ac(a2-3)Gal(b1-3)GalNAc6S
Summary of the method: as §1

[19] = molecular target: Neu5Ac(a2-3)Gal(b1-3)GlcNAc
Summary of the method: as §1

[20] = molecular target: Neu5Ac(a2-3)Gal(b1-3)GlcNAc(b1-3)Gal(b1-4)GlcNAc
Summary of the method: as §1

[21] = molecular target: Neu5Ac(a2-3)Gal(b1-3)GlcNAc6S
Summary of the method: as §1

[22] = molecular target: Neu5Ac(a2-3)Gal(b1-3)[Fuc(a1-4)]GlcNAc
Summary of the method: as §1

[23] = molecular target: Neu5Ac(a2-3)Gal(b1-3)[Fuc(a1-4)]GlcNAc(b1-3)Gal(b1-4)[Fuc(a1-3)]GlcNAc
Summary of the method: as §1

[24] = molecular target: Neu5Ac(a2-3)Gal(b1-3)[Neu5Ac(a2-3)Gal(b1-4)]GlcNAc
Summary of the method: as §1

[25] = molecular target: Neu5Ac(a2-3)Gal(b1-3)[Neu5Ac(a2-6)]GalNAc
Summary of the method: as §1

[26] = molecular target: Neu5Ac(a2-3)Gal(b1-4)Glc
Summary of the method: as §1

[27] = molecular target: Neu5Ac(a2-3)Gal(b1-4)GlcNAc
Summary of the method: as §1

[28] = molecular target: Neu5Ac(a2-3)Gal(b1-4)GlcNAc(b1-3)Gal(b1-4)GlcNAc
Summary of the method: as §1

[29] = molecular target: Neu5Ac(a2-3)Gal(b1-4)GlcNAc(b1-3)Gal(b1-4)GlcNAc(b1-3)Gal(b1-4)GlcNAc
Summary of the method: as §1

[30] = molecular target: Neu5Ac(a2-3)Gal(b1-4)GlcNAc(b1-3)Gal(b1-4)[Fuc(a1-3)]GlcNAc
Summary of the method: as §1

[31] = molecular target: Neu5Ac(a2-3)Gal(b1-4)GlcNAc6S
Summary of the method: as §1

[32] = molecular target: Neu5Ac(a2-3)Gal(b1-4)[Fuc(a1-3)]GlcNAc
Summary of the method: as §1

[33] = molecular target: Neu5Ac(a2-3)Gal(b1-4)[Fuc(a1-3)]GlcNAc(b1-3)Gal
Summary of the method: as §1

[34] = molecular target: Neu5Ac(a2-3)Gal(b1-4)[Fuc(a1-3)]GlcNAc(b1-3)Gal(b1-4)GlcNAc
Summary of the method: as §1

[35] = molecular target: Neu5Ac(a2-3)Gal(b1-4)[Fuc(a1-3)]GlcNAc(b1-3)Gal(b1-4)[Fuc(a1-3)]GlcNAc(b1-3)Gal(b1-4)[Fuc(a1-3)]GlcNAc
Summary of the method: as §1

[36] = molecular target: Neu5Ac(a2-3)Gal(b1-4)[Fuc(a1-3)]GlcNAc6S
Summary of the method: as §1

[37] = molecular target: Neu5Ac(a2-3)Gal6S(b1-4)GlcNAc
Summary of the method: as §1

[38] = molecular target: Neu5Ac(a2-3)Gal6S(b1-4)[Fuc(a1-3)]GlcNAc
Summary of the method: as §1

[39] = molecular target: Neu5Ac(a2-3)GalNAc
Summary of the method: as §1

[40] = molecular target: Neu5Ac(a2-3)GalNAc(b1-4)GlcNAc
Summary of the method: as §1

[41] = molecular target: Neu5Ac(a2-3)[GalNAc(b1-4)]Gal(b1-4)Glc
Summary of the method: as §1

[42] = molecular target: Neu5Ac(a2-3)[GalNAc(b1-4)]Gal(b1-4)GlcNAc
Summary of the method: as §1

[43] = molecular target: Neu5Ac(a2-3)[Neu5Ac(a2-6)]GalNAc
Summary of the method: as §1

[44] = molecular target: Neu5Ac(a2-6)Gal(b1-4)GlcNAc
Summary of the method: as §1

[45] = molecular target: Neu5Ac(a2-6)Gal(b1-4)GlcNAc(b1-2)Man(a1-3)[Neu5Ac(a2-6)Gal(b1-4)GlcNAc(b1-2)Man(a1-6)]Man(b1-4)GlcNAc(b1-4)GlcNAc
Summary of the method: as §1

[46] = molecular target: Neu5Ac(a2-6)Gal(b1-4)GlcNAc(b1-3)Gal(b1-4)GlcNAc
Summary of the method: as §1

[47] = molecular target: Neu5Ac(a2-6)Gal(b1-4)GlcNAc(b1-3)Gal(b1-4)[Fuc(a1-3)]GlcNAc(b1-3)Gal(b1-4)[Fuc(a1-3)]GlcNAc
Summary of the method: as §1

[48] = molecular target: Neu5Ac(a2-6)Gal(b1-4)GlcNAc6S
Summary of the method: as §1

[49] = molecular target: Neu5Ac(a2-6)GalNAc
Summary of the method: as §1

[50] = molecular target: Neu5Ac(a2-6)GalNAc(b1-4)GlcNAc
Summary of the method: as §1

[51] = molecular target: Neu5Ac(a2-8)Neu5Ac
Summary of the method: as §1

[52] = molecular target: Neu5Ac(a2-8)Neu5Ac(a2-3)Gal(b1-4)Glc
Summary of the method: as §1

[53] = molecular target: Neu5Ac(a2-8)Neu5Ac(a2-3)[GalNAc(b1-4)]Gal(b1-4)Glc
Summary of the method: as §1

[54] = molecular target: Neu5Ac(a2-8)Neu5Ac(a2-8)Neu5Ac
Summary of the method: as §1

[55] = molecular target: Neu5Ac(a2-8)Neu5Ac(a2-8)Neu5Ac(a2-3)Gal(b1-4)Glc
Summary of the method: as §1

[56] = molecular target: Neu5Ac(a2-8)Neu5Ac(a2-8)Neu5Ac(a2-3)[GalNAc(b1-4)]Gal(b1-4)Glc
Summary of the method: as §1

[57] = molecular target: Neu5Ac(a2-8)Neu5Ac(a2-8)Neu5Ac(a2-8)Neu5Ac(a2-3)[GalNAc(b1-4)]Gal(b1-4)Glc
Summary of the method: as §1

[58] = molecular target: Neu5Ac9Ac(a2-6)Gal(b1-4)GlcNAc
Summary of the method: as §1

[59] = molecular target: Neu5Gc(a2-3)Gal(b1-3)GlcNAc
Summary of the method: as §1

[60] = molecular target: Neu5Gc(a2-3)Gal(b1-3)[Fuc(a1-4)]GlcNAc
Summary of the method: as §1

[61] = molecular target: Neu5Gc(a2-3)Gal(b1-4)Glc
Summary of the method: as §1

[62] = molecular target: Neu5Gc(a2-3)Gal(b1-4)GlcNAc
Summary of the method: as §1

[63] = molecular target: Neu5Gc(a2-3)Gal(b1-4)[Fuc(a1-4)]GlcNAc
Summary of the method: as §1

[64] = molecular target: Neu5Gc(a2-6)Gal(b1-4)GlcNAc
Summary of the method: as §1

[65] = molecular target: Neu5Gc(a2-6)GalNAc
Summary of the method: as §1

B1: Onconase (Rana pipiens), P22069 (protein)
chain: QDWLTFQKKHITNTRDVDCDNIMSTNLFHCKDKNTFIYSRPEPVKAICKGIIASKNVLTTSEFYLSDCNVTSRPCKYKLKKSTNKFCVTCENQAPVHFVGVGSC
In the case of B1, the “glycan array binding signal (z-score)” value [1] is reported as -0.198, the “glycan array binding signal (z-score)” value [2] is reported as -0.008 and the “glycan array binding signal (z-score)” value [3] is reported as 0.632. The “glycan array binding signal (z-score)” value [4] was 0.799, the “glycan array binding signal (z-score)” value [5] was 0.941 and the “glycan array binding signal (z-score)” value [6] was -0.711. For the same binder, the “glycan array binding signal (z-score)” value [7] was 0.189, the “glycan array binding signal (z-score)” value [8] was -0.116 and the “glycan array binding signal (z-score)” value [9] was -0.659. For the same binder, the “glycan array binding signal (z-score)” value [10] was -0.675, the “glycan array binding signal (z-score)” value [11] was 0.361 and the “glycan array binding signal (z-score)” value [12] was -0.04. For the same binder, the “glycan array binding signal (z-score)” value [13] was 0.119, the “glycan array binding signal (z-score)” value [14] was -0.637 and the “glycan array binding signal (z-score)” value [15] was 0.515. For the same binder, the “glycan array binding signal (z-score)” value [16] was 0.792, the “glycan array binding signal (z-score)” value [17] was 0.926 and the “glycan array binding signal (z-score)” value [18] was 0.697. The “glycan array binding signal (z-score)” value [19] was 0.072, the “glycan array binding signal (z-score)” value [20] was 0.087 and the “glycan array binding signal (z-score)” value [21] was 0.383. For the same binder, the “glycan array binding signal (z-score)” value [22] was 1.03, the “glycan array binding signal (z-score)” value [23] was 0.876 and the “glycan array binding signal (z-score)” value [24] was 0.929. For the same binder, the “glycan array binding signal (z-score)” value [25] was 1.05, the “glycan array binding signal (z-score)” value [26] was -0.037 and the “glycan array binding signal (z-score)” value [27] was -0.359. The “glycan array binding signal (z-score)” value [28] was -0.254, the “glycan array binding signal (z-score)” value [29] was 2.53 and the “glycan array binding signal (z-score)” value [30] was -0.671. The “glycan array binding signal (z-score)” value [31] was 0.465, the “glycan array binding signal (z-score)” value [32] was -0.979 and the “glycan array binding signal (z-score)” value [33] was -0.067. For the same binder, the “glycan array binding signal (z-score)” value [34] was -0.952, the “glycan array binding signal (z-score)” value [35] was 0.618 and the “glycan array binding signal (z-score)” value [36] was -0.331. For the same binder, the “glycan array binding signal (z-score)” value [37] was 0.925, the “glycan array binding signal (z-score)” value [38] was -1.47 and the “glycan array binding signal (z-score)” value [39] was 0.276. The “glycan array binding signal (z-score)” value [40] was 1.14, the “glycan array binding signal (z-score)” value [41] was 0.049 and the “glycan array binding signal (z-score)” value [42] was 1.88. For the same binder, the “glycan array binding signal (z-score)” value [43] was 0.016, the “glycan array binding signal (z-score)” value [44] was 0.51 and the “glycan array binding signal (z-score)” value [45] was 1.79. The “glycan array binding signal (z-score)” value [46] was 0.701, the “glycan array binding signal (z-score)” value [47] was 0.772 and the “glycan array binding signal (z-score)” value [48] was -0.104. The “glycan array binding signal (z-score)” value [49] was 0.41, the “glycan array binding signal (z-score)” value [50] was 0.161 and the “glycan array binding signal (z-score)” value [51] was -0.984. For the same binder, the “glycan array binding signal (z-score)” value [52] was -0.854, the “glycan array binding signal (z-score)” value [53] was 1.16 and the “glycan array binding signal (z-score)” value [54] was -1.76. The “glycan array binding signal (z-score)” value [55] was 0.033, the “glycan array binding signal (z-score)” value [56] was 2.14 and the “glycan array binding signal (z-score)” value [57] was 2.71. The “glycan array binding signal (z-score)” value [58] was -0.006, the “glycan array binding signal (z-score)” value [59] was -0.003 and the “glycan array binding signal (z-score)” value [60] was 1.6. The “glycan array binding signal (z-score)” value [61] was -0.538, the “glycan array binding signal (z-score)” value [62] was -0.276 and the “glycan array binding signal (z-score)” value [63] was 0.695. For the same binder, the “glycan array binding signal (z-score)” value [64] was -2.71 and the “glycan array binding signal (z-score)” value [65] was -2.31.
